# Assay results published in PubChem BioAssay AID488969 (Vanderbilt High Throughput Screening Facility, 2010).
# Over roughly 110,000 compounds, “z-score” has its median near -0.1; the highest 2% begin near 2. The list shows a part of the results. Active and inactive are the calls of the source.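 How the source made its calls: active means z-score in the third read window above 3 or below -3; inactive means the rest.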
# Biological target: Metabotropic glutamate receptor 8 (Rattus norvegicus) (UniProt P70579)
# Assay: rat mGluR8 modulators via GIRK flux, primary screen, cell-based, thallium flux, HTS (AID 488969)
# Conditions: HEK293 rat mGluR8, GIRK (G protein-gated inwardly rectifying potassium channel) thallium flux, FluoZin2; at 10 µM; stronger effect = higher value; submaximal glutamate (EC20) added with thallium
# UniProt P70579, sequence (P70579 whole entry, looked up): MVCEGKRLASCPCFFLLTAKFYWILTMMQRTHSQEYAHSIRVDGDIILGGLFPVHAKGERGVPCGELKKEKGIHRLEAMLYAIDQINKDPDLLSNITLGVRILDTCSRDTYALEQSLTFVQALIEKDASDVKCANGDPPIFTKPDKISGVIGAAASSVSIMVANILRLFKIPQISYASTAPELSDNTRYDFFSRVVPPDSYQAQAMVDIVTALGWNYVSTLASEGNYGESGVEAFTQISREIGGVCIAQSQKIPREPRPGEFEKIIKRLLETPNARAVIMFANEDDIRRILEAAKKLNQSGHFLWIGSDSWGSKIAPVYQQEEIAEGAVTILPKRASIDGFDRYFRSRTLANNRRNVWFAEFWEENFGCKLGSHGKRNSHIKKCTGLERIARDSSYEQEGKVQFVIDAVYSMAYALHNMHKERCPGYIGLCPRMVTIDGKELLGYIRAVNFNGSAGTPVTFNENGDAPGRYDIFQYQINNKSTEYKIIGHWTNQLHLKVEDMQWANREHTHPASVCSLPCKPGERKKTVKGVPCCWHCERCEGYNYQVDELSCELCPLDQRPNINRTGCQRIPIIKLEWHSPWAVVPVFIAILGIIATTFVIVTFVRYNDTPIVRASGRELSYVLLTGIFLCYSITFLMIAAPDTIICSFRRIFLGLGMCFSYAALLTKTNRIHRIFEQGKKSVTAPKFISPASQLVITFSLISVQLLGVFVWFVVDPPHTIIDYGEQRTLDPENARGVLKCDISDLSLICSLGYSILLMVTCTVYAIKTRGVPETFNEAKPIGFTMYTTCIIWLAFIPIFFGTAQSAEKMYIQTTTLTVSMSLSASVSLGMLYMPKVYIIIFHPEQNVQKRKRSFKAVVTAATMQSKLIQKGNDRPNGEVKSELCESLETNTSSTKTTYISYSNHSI
row,SMILES,z-score
1,COc1cc(C2NC(=O)c3ccccc3O2)cc(OC)c1OC (stereo unspecified),0.57
2,CCC1Oc2ccc(C)cc2N(CC(=O)N(Cc2ccc(C)o2)C2CCCC2)C1=O (stereo unspecified),0.943
3,C=CCn1c(COc2ccc(CC)cc2)nnc1SCC(=O)N(C)C1CCS(=O)(=O)C1 (stereo unspecified),-0.465
4,Cc1ccc(C(=O)NCC(=O)OCC(=O)Nc2ccc(Cl)cc2C(F)(F)F)cc1C,-0.629
5,O=C(NCCc1ccccc1)c1ccc(Br)o1,-0.459
6,CCN(CC(=O)NC(C)C)C(=O)c1ccc(Cl)cc1,-0.145
7,O=C(O)CCCc1nc(-c2ccc(Cl)cc2)no1,0.187
8,CC1CCN(C(=O)C(C)Sc2nc(-c3ccccc3)cc(C(F)(F)F)n2)CC1 (stereo unspecified),-0.911
9,CCOC(=O)c1ccc(-c2ccc(/C=N/NC(=O)CN(c3cccc(C)c3)S(C)(=O)=O)o2)cc1,-0.0521
10,O=C(CN1C(=O)c2ccccc2C1=O)N1CCN(C2c3ccccc3-c3ccccc32)CC1,-0.0989
11,Cc1[nH]c2ccccc2c1C(=O)C(=O)N1CC=C(c2ccccc2)CC1,-0.204
12,Cn1c(=O)cc(SCC(=O)N2CCN(c3ccccc3)CC2)c2ccccc21,-0.379
13,COc1ccccc1CNC(=O)C1CCCN1S(=O)(=O)c1cccc2cccnc12 (stereo unspecified),0.0304
14,O=C(Nc1ccc2c(c1)OCO2)N1CCN(c2cccc(C(F)(F)F)c2)CC1,0.62
15,CCOc1ccc(NC(=O)C2CCN(C(=O)NC3CCCCC3)CC2)cc1,-0.378
16,CC1(C)NC(=O)N(CCCOc2ccccc2Br)C1=O,-0.224
17,COc1cccc(C(=O)NCC(=O)OCC(=O)C(C)(C)C)c1,0.102
18,CCCCNC(=O)c1sc2ncnc(N3CCc4ccccc4C3)c2c1C,-1.83
19,Cc1ccc(-c2nnc(Nc3ccccc3)o2)cc1,1.1
20,Cc1ccc(-c2cc(C(=O)NC3=NCCS3)c3cc(Br)ccc3n2)o1,-0.551
21,COC(=O)c1sccc1NC(=O)Nc1ccc(Cl)c(Cl)c1,-0.163
22,Cc1ccc(Sc2ccc(NC(=O)c3ccc(S(C)(=O)=O)cc3Cl)cc2)cc1,0.285
23,O=C(NCc1ccco1)C1CCCN1S(=O)(=O)c1ccc2ccccc2c1 (stereo unspecified),-0.476
24,CC1(C)C(=O)OC(C(=O)c2ccc(Cl)cc2)C(C)(C)C1=O (stereo unspecified),0.189

row,SMILES,z-score
1,Cc1cccc(NC(=O)Cc2noc3ccccc23)c1,0.0168
2,CCOC(=O)CC(=O)CSc1nc2c(C)c(C)ccc2cc1C,-0.0827
3,CC(C)c1ccc(CNC(=O)CSCC(=O)Nc2ccc3ccccc3c2)cc1,-0.115
4,COc1ccc(C(=O)Nc2cc(OC)nc(OC)n2)cc1,0.144
5,CCn1cc(Cl)c(C(=O)NNC(=O)CCn2nc(C)c([N+](=O)[O-])c2C)n1,0.129
6,O=C(Oc1cccc(-n2cnnn2)c1)C1CCCCC1,0.757
7,O=C(C1CCN(c2ncnc3c2sc2cccc(F)c23)CC1)N1CCOCC1,active: -3.19
8,CCn1c(SCc2cc(=O)[nH]c3ccccc23)nc2c1c(=O)n(C)c(=O)n2C,0.0088
9,Cc1sc2nc(SCC(=O)NCc3ccco3)n(C)c(=O)c2c1C,-0.982
10,Cc1ccc(Nc2nc(N)nc(CSc3nccn3C)n2)cc1,1.08
11,CC(Oc1ccc2c(-c3ccccc3)cc(=O)oc2c1)C(=O)O (stereo unspecified),0.884
12,O=C(Nc1cccc(Cl)c1N1CCCCC1)c1ccc2c(c1)OCCO2,-0.178
13,Cc1ccc2occ(/C=C/C(=O)c3ccccc3O)c(=O)c2c1,-0.0774
14,O=C(NCCN1C(=O)S/C(=C\c2ccc(F)cc2)C1=O)C1CCN(S(=O)(=O)c2cccs2)CC1,-0.242
15,CCCNC(=O)c1cc2nc(-c3ccccc3)cc(C(F)(F)F)n2n1,0.138
16,CC1(C(=O)NC2CCCCC2)CCC(=O)N1Cc1cccs1 (stereo unspecified),0.262
17,CCCCn1cnc2c(cnn2-c2ccc(Cl)cc2)c1=O,-1.12
18,O=C(CSCc1ccccn1)Nc1ccccc1,-0.336
19,COC(=O)c1cc(NC(=O)Cc2ccccc2[N+](=O)[O-])ccc1Cl,0.808
20,O=S(=O)(/C=C/c1ccccc1)c1ccccc1,-0.103
21,Cc1ccc(-c2nnc(SCC(=O)N/N=C/c3ccc(C)s3)n2-c2ccccc2)cc1,-1.03
22,Cc1ccc(NC(=O)COC(=O)/C=C/c2ccco2)cc1S(=O)(=O)N(C)C,1.23
23,O=[N+]([O-])c1cn(Cc2ccc(Cl)cc2)cn1,-0.364
24,Cc1ccc(S(=O)(=O)N2CCN(CC(=O)Nc3ccc(N4CCOCC4)cc3)CC2)cc1C,-0.522

row,SMILES,z-score
1,Cc1cc(C)cc(NC(=O)C/C(N)=N/O)c1,0.116
2,Cc1cccc(NC(=S)N2CCC(N(C)CC3CCCO3)CC2)c1C (stereo unspecified),0.0113
3,O=C(Cn1cnc2ccccc2c1=O)c1ccccc1,0.512
4,COC(=O)c1cc(OC)c(OC)cc1NC(=O)C1CCC(=O)N1S(=O)(=O)c1ccc(C)cc1 (stereo unspecified),-0.0287
5,CN1C(=O)CSc2ccc(NC(=O)NCc3ccco3)cc21,-0.154
6,CCNC(=O)CC1SC(=Nc2ccccc2C)N(C)C1=O (stereo unspecified),0.548
7,CCOc1ccc(OCCN2C(=O)NC3(CCCc4ccccc43)C2=O)cc1 (stereo unspecified),-0.374
8,NC(=O)CSc1nnc(-c2cccnc2)n1Cc1ccccc1,-0.124
9,O=C(Oc1ccc2ccccc2c1Br)N1CCCCCC1,-0.28
10,CCCCC(=O)Nc1ccc2oc(-c3cccnc3)nc2c1,1.52
11,O=C(COC(=O)c1ccncc1)NCc1ccccc1,0.0972
12,Cc1nc(N2CCCC2)c2ccsc2n1,-0.369
13,CC(C)N(CCNC(=O)C1CCN(S(=O)(=O)N2CCOCC2)CC1)Cc1ccccc1,0.267
14,O=C(c1csc2c1CCCC2)N1CCCCC1,0.211
15,CCOc1ccccc1NC(=O)CSC1=C(C#N)C(c2ccco2)C(C(=O)Nc2nc3ccccc3s2)=C(C)N1 (stereo unspecified),0.401
16,CCSc1ncnc2c1oc1ccccc12,-0.37
17,Cc1[nH]n(-c2ccc([N+](=O)[O-])cc2)c(=O)c1C=NCCN1CCN(C(=O)c2ccccc2F)CC1,-1.45
18,CC(CCc1ccccc1)N1CCN(Cc2ccccc2)CC1 (stereo unspecified),-0.337
19,COc1ccccc1NC(=O)c1cc2ccccc2o1,-0.485
20,COc1cccc(Nc2c3c(nc4c(-c5ccccc5)c(C)nn24)CCC3)c1,-0.0626
21,CCCc1cc(=O)oc2cc(OCc3cc(OC)c(OC)c(OC)c3)c(Cl)cc12,-0.0608
22,COc1cccc(C2C3=C(N=c4s/c(=C\c5cccc(O)c5)c(=O)n42)c2ccccc2CC3)c1OC (stereo unspecified),0.00852
23,O=C(COC(=O)CCC(=O)c1ccc(Cl)cc1)NCC1CCCO1 (stereo unspecified),-0.0473
